Patent US20250145722A1, “ANTI-GAL3 ANTIBODIES AND METHODS OF USE” (TrueBinding, Inc., priority 2020, published 2025)

Tests used:
[1] = biological target: T1, Human Gal3 peptides (Homo sapiens, UniProt P17931); assay: Gal3 peptide library binding ELISA; details: antibodies 5 μg/mL
T1 construct: purchased LifeTein custom order; host or cells: synthetic peptides
Description: (§1) To identify the epitopes to which Gal3 antibodies with and without Gal3-APP695 blocking activity bound, a library of 20 amino acid peptides representing portions of Gal3, summarized in FIG. 17 (SEQ ID NOs: 3-26), was produced and the ability to bind Gal3 antibodies was evaluated by ELISA.
(§2) Human Gal3 peptides (LifeTein, custom order) and human Gal3 proteins (R&D Systems, 8259-GA; TrueBinding, QCB200349) were diluted in PBS (Corning, 21-030-CM) to concentrations of at least 100 μg/mL (peptides) or 1 μg/mL (proteins), and added to the wells of several 96-well ELISA plates (Thermo Fisher, 44-2404-21). After incubating the plates at 4° C. overnight, the plates were washed three times with PBST (PBS with 0.05% Tween 20 [VWR, 0777]). The plates were then blocked for an hour with 2% BSA (EMD Millipore, 126609) in PBST at room temperature with gentle rocking. Thereafter, the 2% BSA in PBST was discarded and Gal3-binding antibodies (reformatted hIgG4 [S228P]) were diluted in 2% BSA in PBST to concentrations of 5 μg/mL and added to the wells. The plates were incubated for an hour at room temperature with gentle rocking and then washed three times with PBST. […] The reaction was stopped with 1M HCl (JT Baker, 5620-02) and read using a plate reader (Molecular Devices) at absorbance of 450 nm.

[2] = system: Human Gal3 peptides; assay: Gal3 peptide library binding ELISA; details: antibodies 5 μg/mL
Description: as §1, §2

T1 sequence (P17931 52-71): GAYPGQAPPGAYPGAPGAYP

Binding to Peptide 6 (SEQ ID NO: 8) of Gal3 [1]: bind and bound
Binding to Peptide 17 (SEQ ID NO: 19) of Gal3 [2]: bind
B1: F846TC.16B5: anti-Gal3 antibody (antibody)
heavy: QIQLVQSGPELKKPGETVKISCKASGYTFTNYGMNWVKQAPGKGLKWMGWINTYTGEPAYADDFKGRFAFSLETSASTAYLQINNLKNEDMATYFCARWGGYDGDYYAMDYWGQGTSVTVSSASTKGPSVFPLAPCSRSTSESTAALGCLVKDYFPEPVTVSWNSGALTSGVHTFPAVLQSSGLYSLSSVVTVPSSSLGTKTYTCNVDHKPSNTKVDKRV[letters of human IgG4 Fc with S228P (EU numbers) omitted]
light: NIMMTQSPSSLAVSAGEKVTMSCKSSQSVLYSSNQKNYLAWYQQKPGQSPKLLIYWASTRESGVPDRFTGSGSGTDFTLTISSVQAEDLAVYYCHQYLSSLTFGAGTKLELKRTVAAPSVFIFPPSDEQLKSGTASVVCLLNNFYPREAKVQWKVDNALQSGNSQESVTEQDSKDSTYSLSSTLTLSKADYEKHKVYACEVTHQGLSSPVTKSFNRGEC
